In PubChem BioAssay AID1476 (National Center for Advancing Translational Sciences (NCATS), 2009):
The campaign covered roughly 200,000 compounds. About 4,500 (2.2%) were called active. Inconclusive means that the source gave no clear call. Such entries were picked first, then a sample of the others. Calls follow the shape of the dose curve; as a rule, active = well fitted inhibition curve with a large enough effect; inconclusive = small, poorly fitted or top-dose-only effect, or effect the other way; inactive = flat fitted curve, though single readings scatter. Potencies beside an inconclusive call are fits to weak or partial responses and may not hold up.

Molecular target: Cruzipain (Trypanosoma cruzi) (UniProt P25779)
Assay: qHTS Assay for Promiscuous and Specific Inhibitors of Cruzain (without detergent); also: nearly all actives have a fitted effect of over 40% in size;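 as to max response, negative = inhibition: plate controls were enzyme without inhibitor for no effect and buffer without enzyme for full effect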
Settings: purified cruzain, Z-FR-AMC fluorescence, no detergent
In short: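 Detergent-free condition (0.00005% Triton X-100) in acetate buffer pH 5.5 with DTT. 1.5 nM enzyme and compound were pre-mixed 15 min, then 2 uM Z-FR-AMC substrate added; reaction progress from fluorescence change between first and third reads (60 s).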
Potency is read from the fitted curve at half-maximal effect; tags tell the direction and shape of the fitted curve.

UniProt P25779, sequence (P25779 whole entry, looked up): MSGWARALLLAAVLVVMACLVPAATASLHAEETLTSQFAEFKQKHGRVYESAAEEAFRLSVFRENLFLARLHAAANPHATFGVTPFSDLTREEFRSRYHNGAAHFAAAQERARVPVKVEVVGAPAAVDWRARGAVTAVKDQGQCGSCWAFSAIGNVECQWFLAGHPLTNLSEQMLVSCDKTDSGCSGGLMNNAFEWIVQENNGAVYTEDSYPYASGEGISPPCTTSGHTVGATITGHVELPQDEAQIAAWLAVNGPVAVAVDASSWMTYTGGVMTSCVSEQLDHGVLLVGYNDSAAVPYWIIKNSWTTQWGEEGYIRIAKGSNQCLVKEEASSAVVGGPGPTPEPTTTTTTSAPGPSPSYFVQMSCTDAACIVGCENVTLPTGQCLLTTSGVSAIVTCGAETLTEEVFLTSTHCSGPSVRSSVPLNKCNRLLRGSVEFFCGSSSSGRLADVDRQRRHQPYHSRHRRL

Structure (SMILES)	Potency	max response, negative = inhibition
CCOC(=O)Cc1nnc(NC(=O)CSc2ccc(Cl)cc2)s1	inconclusive: 39.8 µM [inhibitor, single point]	–
Cc1nc2cnc(N(C)C)nc2n(CCC#N)c1=O	–	inactive: 4.37%
Cc1ccc(-c2nc3nc(C)cc(Nc4ccccc4O)n3n2)cc1	–	inactive: -9.7%
COC(=O)c1scc(-c2ccc(C)cc2)c1S(=O)(=O)N1CCN(c2ccc(OC)cc2)CC1	–	inactive: -20.1%
O=C(Cn1c(=O)n(CC2CCCO2)c(=O)c2ccccc21)Nc1cccc(Cl)c1 (centres undefined)	–	inactive: -5.05%
N#Cc1c(NC(=O)COC(=O)c2ccc(S(=O)(=O)N3CCCC3)cc2)sc2c1CCCCC2	inconclusive: 31.6 µM [inhibitor, single point]	–
CCn1cnc2cc(NCc3ccc(OC)cc3)ccc21	inconclusive: 39.8 µM [inhibitor, single point]	–
CCOC(=O)c1ccccc1NC(=O)N1CCC(N2CCN(Cc3ccccc3)C(=O)C2=O)CC1	–	inactive: 19%
CCOC(=O)c1cnn(-c2cc(Oc3ccccc3)ncn2)c1N	inconclusive: 39.8 µM [inhibitor, single point]	–
CC1CCCCC1NC(=O)C1Cc2ccccc2CN1S(C)(=O)=O (centres undefined)	inconclusive: 2 µM [inhibitor, partial curve]	–
CC(C)CN(C(=O)CSc1nn(-c2ccc(Cl)cc2)c(=S)s1)C1CCS(=O)(=O)C1 (centres undefined)	inconclusive: 39.8 µM [activator, single point]	–
O=C(NN=C1CCCCCCCCCCC1)c1cccc(S(=O)(=O)N2CCOCC2)c1	inconclusive: 31.6 µM [activator, single point]	–
O=C(N/N=C/C(Cl)=C/c1ccccc1)c1cnccn1	–	inactive: -17.4%
COc1ccc(Cc2nnc(NC(=O)Cc3cccs3)s2)cc1	active: 20 µM	–
O=C(COC(=O)CNS(=O)(=O)c1ccc(F)c(F)c1F)Nc1ccc(OC(F)F)cc1	inconclusive: 31.6 µM [inhibitor, single point]	–
Cc1cc(Br)ccc1SCC(=O)OCC(=O)N1CCN(C(=O)c2ccco2)CC1	inconclusive: 39.8 µM [activator, single point]	–
CCOc1ccc(CNC(=O)c2ccc3c(c2)c(C)c(C)n3Cc2ccc(Cl)cc2)cc1	active: 10 µM	–
O=[N+]([O-])c1cc(-n2cnnn2)ccc1N1CCC(Cc2ccccc2)CC1	active: 25.1 µM	–
CCNc1ccc(-c2nc(-c3ccco3)no2)cc1[N+](=O)[O-]	–	inactive: -15.2%
O=C(C1CC1)N1CCc2cc(Br)cc(S(=O)(=O)NCC3COc4ccccc4O3)c21 (centres undefined)	inconclusive: 25.1 µM [inhibitor, single point]	–
O=C(C1CC(c2ccc(F)cc2)=NO1)N1CCCCC1 (centres undefined)	inconclusive: 39.8 µM [activator, single point]	–
N#CC(C(=O)NCCc1ccccc1)c1nc2ccccc2nc1N1CCCCC1 (centres undefined)	inconclusive: 39.8 µM [inhibitor, single point]	–
CCCn1nc2cc(C(=O)NCc3ccc(OC(F)(F)F)cc3)ccc2c1OCC	inconclusive: 39.8 µM [activator, single point]	–

Structure (SMILES)	Potency	max response, negative = inhibition
COc1ccc2c(c1)sc1ncc(C(=O)NCc3cccc(Cl)c3)c(=O)n12	–	inactive: 0.925%
O=C(NCc1ccc(Cl)cc1)c1cnc2sc(N3CCCC3)nn2c1=O	–	inactive: 9.44%
CCOc1ccc(C(c2c(O)cc(C)n(CCOC)c2=O)N2CCC(C)CC2)cc1 (centres undefined)	inconclusive: 39.8 µM [activator, single point]	–
COc1ccc(CCNC(=O)c2ccc3c(c2)N(Cc2cccc(Cl)c2)C(=O)CS3)cc1OC	–	inactive: -1.46%
COc1ccccc1C(=O)NC(=S)/C=C1/N(C)c2ccccc2C1(C)C	active: 25.1 µM	–
COc1ccc(NC(=O)c2sc3nc4n(c(=O)c3c2C)CCC4)cc1Cl	inconclusive: 31.6 µM [activator, single point]	–
O=C1c2[nH]nc(-c3ccc(Br)cc3)c2C(c2cccc(O)c2)N1c1ccc(Cl)cc1 (centres undefined)	inconclusive: 15.8 µM [inhibitor, partial curve]	–
Cc1ccc(OCc2ccc(-c3nc(C#N)c(NCc4cccnc4)o3)o2)cc1	inconclusive: 39.8 µM [activator, single point]	–
COc1cc(/C=N/NC(=O)COc2ccccc2[N+](=O)[O-])ccc1OC(=O)c1ccco1	inconclusive: 39.8 µM [activator, single point]	–
COc1ccccc1Nc1nc(N)nc(CSC(=S)N2CCCCC2C)n1 (centres undefined)	inconclusive: 39.8 µM [inhibitor, single point]	–
CCOC(=O)c1c(C)c(-c2ccccc2)n(CC(=O)Nc2cc(C)ccc2OC)c1C	–	inactive: 3.37%
COc1ccccc1N1CCN(CCCNC(=O)c2cnn(-c3cccc(Cl)c3)c2C2CCN(C(=O)OC(C)(C)C)CC2)CC1	–	inactive: 10.6%
Cc1ccc(CN2C(=O)C3(c4ccccc42)N(c2cccc(F)c2)C(=O)CS3(=O)=O)cc1 (centres undefined)	active: 1.58 µM	–
CCOc1ccc(CNC(=O)Cn2cc3c(n2)-c2c(oc(C(=O)N4CCOCC4)c2C)CC3)cc1	inconclusive: 39.8 µM [activator, single point]	–
O=C(NCCc1cn2ccccc2n1)c1ccccc1F	inconclusive: 25.1 µM [inhibitor, single point]	–
CCOC(=O)c1cc(-c2ccccc2)n(CCC(=O)N2CCN(c3ccccc3OC)CC2)c1C	inconclusive: 10 µM [activator, partial curve]	–
Cn1c(=O)c(-c2ccc(Cl)cc2)nc2cnc(N3CCNCC3)nc21	inconclusive: 3.98 µM [activator, single point]	–
CCCCCCCCCCCCC(C(=O)O)C(C)C(=O)O (centres undefined)	inconclusive: 15.8 µM [activator, partial curve]	–
Cc1ccc(-n2ncc3c(Nc4cccc(C)c4C)ncnc32)cc1	–	inactive: 5.48%
COC(=O)[C@@]1(C)C=C[C@@H](Cc2ccccc2)N1C	inconclusive: 31.6 µM [activator, single point]	–
Cc1ccc2c(CC(=O)Nc3ccc(S(=O)(=O)N4CCCCC4)cc3)coc2c1	active: 25.1 µM	–
Cc1ccc2[nH]c(=O)c(CN(Cc3ccccc3)Cc3nnnn3C3CCCC3)cc2c1	–	inactive: 11.6%
CCNC(=O)c1c(NC(=O)Cc2coc3cc(C)cc(C)c23)sc2c1CCCC2	–	inactive: -1.53%

Structure (SMILES)	Potency	max response, negative = inhibition
COc1ccccc1N1CCN(S(=O)(=O)c2c(C)sc3ncn(CC(=O)N(C)c4ccc(Cl)cc4)c(=O)c23)CC1	inconclusive: 25.1 µM [activator, single point]	–
CC1=NN(c2ccccc2)C(=O)/C1=C\c1cc(C)n(-c2ccccc2)c1C	inconclusive: 31.6 µM [inhibitor, single point]	–
CCOC(=O)N1CCN(C(=O)c2cnn3c(C(F)F)cc(-c4ccc(C)cc4)nc23)CC1	inconclusive: 39.8 µM [activator, single point]	–
CCOc1cc(/C=N/NC(N)=S)cc(Br)c1OCc1ccccc1C	active: 1 µM	–
C[C@H](CCC(=O)O)[C@H]1CC[C@@H]2[C@@H]3CC[C@H]4C[C@@H](O)CC[C@@]4(C)[C@@H]3C[C@H](O)[C@@]21C	inconclusive: 3.98 µM [activator, single point]	–
N#CCCn1c(=O)c(-c2ccccc2)nc2cnc(Oc3ccccc3)nc21	inconclusive: 25.1 µM [inhibitor, single point]	–
COC(=O)c1c(C)oc2ccc(N(C(=O)Oc3ccccc3)S(=O)(=O)c3ccccc3)cc12	inconclusive: 31.6 µM [inhibitor, single point]	–
Cc1ccc(Cl)cc1NC(=O)C(C)n1nc(-c2ccccc2)ccc1=O (centres undefined)	inconclusive: 39.8 µM [activator, single point]	–
COC(=O)NCC(c1cccnc1)N1CCN(c2ccc(F)cc2)CC1 (centres undefined)	–	inactive: 22.9%
CCOc1ccc(CCNC(=O)CCCn2c(=O)c3cccn3c3ccccc32)cc1	inconclusive: 39.8 µM [activator, single point]	–
Cc1ccc(CNC(=O)CCCn2c(=O)c3ccccc3n(CC(=O)Nc3ccc(C)c(C)c3)c2=O)cc1	–	inactive: -5.53%
COC(=O)[C@@H]1C[C@H]1[C@@H](N)c1ccccc1	–	inactive: -2.85%
Cc1ccc(NC(=S)N(Cc2cccs2)Cc2cc3cccc(C)c3[nH]c2=O)cc1	active: 15.8 µM	–
CCOC(=O)c1c(C)oc2nc(C)nc(NCc3ccc(F)cc3)c12	–	inactive: -9.79%
CCCCS(=O)CC(COCc1ccccc1)OC(=O)CSc1nc(C)cc(C)n1 (centres undefined)	inconclusive: 31.6 µM [activator, single point]	–
CCn1c2ccccc2c2cc(/C=N/NC(=O)c3cccc(C)c3)ccc21	active: 7.94 µM	–
Cc1ccc(-n2c(=O)c3c(C)c(C)sc3n(CC(=O)NCc3ccccc3)c2=O)cc1C	–	inactive: 2.04%
O=C(CSc1ccc(Cl)cc1)Nc1ccc(NC(=O)c2ccco2)cc1	active: 10 µM	–
CC1CCc2c(sc(NC(=O)C3c4ccccc4Oc4ccccc43)c2C#N)C1 (centres undefined)	–	inactive: -24.2%
O=c1cc(O)cc(/C=C/c2ccc(O)c(O)c2)o1	–	inactive: -7.39%
CN1CCC(N(C)C(=O)CCc2nc3ccccc3c(=O)[nH]2)CC1	–	inactive: -6.52%
Cc1cccc2c1N(C(=O)c1ccco1)C(C)(C)c1ssc(=S)c1-2	–	inactive: -12.2%
COC(=O)c1scc(-c2ccc(C)cc2)c1S(=O)(=O)N1CCN(c2ccc(C(C)=O)cc2)CC1	–	inactive: -15.8%
